Results reported in the supplement of paper PMC3334620.
The full ranking holds about 33,000 sequences; the median of “E-score (-0.5 to 0.5)” is about -0.016, and the highest 2% start at about 0.31. Some of the results follow.

Biological target: Cst6 (UniProt P40535)
Assay: PBM E-score (8-mer binding enrichment) (E-score (-0.5 to 0.5)); higher = stronger / more preferred TF binding; most listed sequences are background and not binding sites
Details: protein concentration: 200 nM; construct: GST-DNA-binding domain
Outline: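 Yeast transcription factors carrying a GST tag, as full-length proteins or DNA-binding domains, were produced by PURExpress in vitro transcription/translation. About 100-200 nM protein was applied to universal all-10-mer Agilent arrays, double-stranded by primer extension on fresh or once-stripped slides. Bound protein was detected with fluorescent anti-GST, and scans were normalised with masliner. The Universal PBM Analysis Suite gave each ungapped eight-base word, pooled with its reverse complement, an E-score, a modified Wilcoxon-Mann-Whitney statistic.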

Sequence | PBM E-score
CGGGCCGC | -0.106
AGCAGGCG | -0.163
GACGTTGA | 0.24
GCACAGGC | -0.153
CAGACGGC | 0.101
TACAAAAA | 0.206
AACATTAG | -0.0121
CTCAGCTA | -0.0723
AGAAACTA | 0.0177
TATGAGAA | 0.0584
AGGAACAT | 0.0038
CGGTGCAA | -0.202
TGCCGCAA | 0.18
CTCACCAG | -0.0631
ACCAAGTC | -0.123
CCCCGACA | -0.156
AATTCCGT | 0.175
CAATTCAC | 0.167
TGAGCACA | 0.0767
ACGTACCT | -0.0969
CCTCACGC | 0.22
ACGCATGA | 0.104
CGAGATAC | 0.216
GAAATACA | 0.135
GTGGTCAA | -0.128

Sequence | PBM E-score
AAGAAGAG | 0.00635
CTCTGGGA | -0.311
AGTCCACC | -0.262
AGTGGGCA | 0.00486
ACCATGGA | -0.216
CGTGTCTA | 0.152
GCGTGGAC | -0.171
GCGACGCA | 0.0151
TGTACTAA | 0.0422
ACGCGAAC | -0.0701
CGGGCTAC | -0.221
AGCTTTTA | 0.0862
CTAACTGA | 0.124
GATCAATA | 0.185
CGTCCACG | 0.114
CAAGTAGC | -0.0762
ATAATTCG | 0.155
AATAGCAT | 0.0947
AGCTCTGA | -0.0909
AGACGACC | -0.197
AAAGAAAG | 0.0919
AGCGACCT | -0.179
GCTAGTCC | -0.234
AATTCTCA | 0.125
AGGTGGAG | -0.172

Sequence | PBM E-score
CGATGCGA | -0.0133
GAAACAAA | 0.17
CTAGCTAG | -0.074
AACCAGGT | -0.2
ACTTTCGC | 0.0588
AGGGCCGC | -0.156
AACCGCGC | 0.0974
GAAGTTCA | -0.0392
CGAGTATC | -0.229
GCGCCAGC | -0.294
ACAGGGGG | -0.355
AAATGGAT | -0.0183
ATCCCGGA | -0.249
CAACCAGC | -0.203
GGCTGATA | -0.0787
AGGAGCGC | -0.229
ACGAGCGG | 0.0814
GTACGGAC | 0.0382
GAATTACC | 0.0861
GGCTGCCC | -0.361
ATCGTGGC | 0.0366
GGGGATTA | -0.0687
TGCAAAAA | 0.133
ATTTCTCG | 0.242
CCGGTTGA | -0.078

Sequence | PBM E-score
CGTCAAAG | 0.118
CCTTATAA | 0.0921
TCAGCGGA | -0.0381
GTGTGGGA | -0.128
CATTCATC | 0.112
CGAAAACG | 0.111
AATATGTG | 0.25
CACAGTCA | -0.113
ACGTACCC | 0.156
CGTTTCAG | 0.0741
AGCATGAG | 0.0502
CATTTACC | 0.133
ACAACTCG | -0.0364
ATCGAACC | 0.00079
ACAGTACC | -0.101
CCAAAAGC | -0.0501
CAGGCATC | -0.213
AGCATACC | 0.0269
AGGATTAT | -0.144
GCCTTATA | 0.0324
AATGATCT | 0.215
CGGATGGA | -0.101
GACGTCGC | 0.236
CATGGGCC | -0.185
CCCAACTC | -0.0198

Sequence | PBM E-score
CAAGGTTC | -0.155
AAAACCTT | -0.0497
GACAAGAA | 0.21
AAAAGATG | 0.26
CAGAACCA | -0.148
CCGAGATC | -0.143
GATCGTAA | 0.0065
AACGCGAT | 0.00529
ATTAGAAT | 0.164
CGCCAGAG | -0.259
CTGCAAAA | 0.0651
ACGCATTG | 0.152
ATTACAGC | 0.0458
ACCGCGGT | -0.095
CCCTTCCG | -0.274
ATATATCC | 0.275
AGGTAGAT | -0.162
CATTAGGA | -0.0471
GGGTGGAA | -0.0697
GGTCGTAC | -0.368
GAAGACTC | -0.142
TATTAAAA | 0.323
GTGCTGAA | -0.12
GTCCCGAC | -0.167
ACCGACGA | -0.0237

Sequence | PBM E-score
ATATCGGC | 0.0277
CTATCCTC | -0.198
TACCAGTA | 0.105
GGAAGTAC | -0.173
ATCGAGGC | 0.00232
ACGCCCGC | -0.0752
AACTTTCG | 0.0454
CAACGATG | 0.0278
GATGACAC | 0.286
AATGGATA | -0.0788
AGGAAAAG | 0.0926
CCCTCTGA | -0.136
GTCTGTCA | 0.0315
CATCGTCA | 0.372
GTGGGCCA | -0.128
GTTCAGCA | -0.0502
ACTGTTAA | 0.162
CTCTAGAG | -0.334
AACAGTAA | -0.00645
AATCTGCG | -0.0502
ACTAGAGT | 0.0316
AAAAAGTA | 0.229
CCCTTTAC | -0.0551
ACAGCTCT | -0.195
TAACTCGA | 0.186

Sequence | PBM E-score
AACTTGTC | 0.0387
CAGTAGCG | -0.135
CTAGGTAA | -0.148
ACCGCTAG | -0.244
AAACGAGG | 0.0309
ACACGTGA | 0.172
TATATTAA | 0.336
ACTGCGAC | -0.153
CACCTGCC | 0.0858
AGATGTAT | -0.0587
ACAGAATC | -0.077
ACCTGGTG | -0.162
AAAGGAGT | -0.00521
AATCGCGG | 0.0102
GGTCCAAC | -0.239
GACTGAAC | -0.182
CGTCAGGA | 0.238
GATGTACA | 0.0922
AATCCTGT | 0.155
CAAGCTCA | -0.225
AGCGGTGG | -0.262
CGATTATA | 0.0906
AAGTCCTC | -0.197
AAAGCGGC | 0.151
CTCTCTTA | 0.0389

Sequence | PBM E-score
CGAAGTTA | 0.11
ACTTTAAA | 0.201
AGACGTGG | -0.0806
AGTGCTCA | -0.115
ACCGAGGT | -0.217
CGAATAAC | 0.0736
GTGTTCAA | -0.0442
GAGCCAGC | -0.299
CCTCACCG | -0.172
CCCCCGAC | -0.275
ATAGAGAG | -0.225
TGTTGCAA | 0.197
TATGAGCA | -0.00511
GGTATACC | -0.00558
CACCGAGC | 0.0117
GGGGACCA | -0.054
AGTGTTCC | -0.0343
CCATGCAC | -0.124
ACTTTTCC | 0.158
CGTTATTC | 0.0393
AGCATGTA | -0.157
GCTGAGAA | -0.143
CTTATGAC | 0.368
GAATTCGA | 0.0181
GGACTCAA | -0.222

Sequence | PBM E-score
ATAACGAG | -0.0387
GGAACGCA | -0.112
CACTTAGA | 0.0716
GTAACAGA | 0.138
CGTTACAA | 0.135
CCCGCGAC | -0.209
AGTTAGCG | 0.0693
CAAGCCCC | -0.293
GAGCGGCA | 0.18
CAGTGACA | 0.248
ATATAAAT | 0.321
AACCCAAA | 0.143
ACTAGCTG | 0.0222
CCCGGCAG | -0.345
CAAGGATC | -0.012
ACTAGATC | -0.0949
ATGCGTGG | -0.254
ACCTAACG | 0.0849
ATCCGTGA | -0.0022
ATCTAAGG | -0.0239
GACCTCGA | -0.0871
TTGAACAA | 0.00179
AAAGTGTA | 0.144
TCGCTTAA | 0.0628
AGACCGTA | -0.199

Sequence | PBM E-score
ATGACGCG | 0.463
CTCACTTA | 0.0557
CGCCCTAG | -0.132
AACTGTCC | -0.28
CACGTGGA | 0.0156
CTCGTAAA | -0.0847
CATGTTTC | 0.214
TGATTGAA | 0.124
ATTTATCA | 0.227
AGGCCCGA | -0.344
ACGAAAGA | 0.188
CATCCGGA | -0.0898
ACCCACCA | -0.0825
ATGTCGAA | 0.037
GGGGCGGA | -0.298
TACACTCA | 0.124
AATGAATG | 0.27
AGACTCAA | -0.0859
CTAAAACA | 0.135
CCTCGGTC | -0.348
CATTAGAG | -0.0644
CTTAGAAC | 0.0812
TGTTTTAA | 0.17
CGAATGGA | 0.135
CATACACA | -0.0117

Sequence | PBM E-score
AATTAAAA | 0.187
ATTCCCGA | -0.19
ACGTTTAC | 0.0397
CCTCTTTC | -0.233
GTCCACCA | -0.221
CAGTTTGG | -0.179
GCGTGAGC | 0.0338
CATTACAC | 0.198
GGTTCTAA | 0.104
CGATATGC | 0.0678
CTCTAACA | 0.00241
AAGTGGCG | 0.207
CATTCTGG | -0.0615
CTGAAGGA | -0.271
AGTAGTCC | -0.194
CTCTAGTA | 0.0659
AATTCTTC | 0.181
ACCACGAT | 0.157
GCTCGTGA | 0.0506
ATTTGTGC | 0.0185
CCACCTGG | -0.252
ATGTTTCG | 0.263
CGTGGTAA | 0.00542
ACCGCTAT | -0.128
TAAGGAGA | 0.0146

Sequence | PBM E-score
ATCCACCG | -0.0635
CCCTTGAA | -0.148
ACTTTGGG | -0.0539
AAGGTACG | 0.0548
CAGACTGC | 0.0252
GTGAATGA | 0.183
TCTAAGAA | 0.241
ACAATTAC | 0.249
AGACCGCG | -0.0358
ACTCGTAG | -0.251
GCCAGCGC | -0.223
AACCCCTA | -0.195
AGAGATAG | 0.0685
GCCGGGCA | -0.274
ATACTTGA | -0.0602
ACTGGTTG | -0.013
AGTCAGAC | -0.193
GAAAATGC | -0.0295
CAGATACC | -0.076
AGCCGATC | -0.059
CCTATCAG | -0.144
ATCAACGG | 0.256
GCAATGCA | 0.0147
AGAGCCTG | -0.0561
CGCAGAGC | -0.0408

Sequence | PBM E-score
CTAACTGC | -0.0744
AACCCCCC | -0.397
ATGCCCCC | -0.258
GCATCTTA | 0.15
CCTATGCG | -0.0868
AACCGTCG | -0.00516
ATCCCGCA | -0.056
CATCGTGC | 0.0698
AAAAGCGA | 0.00806
GTCCTTGA | -0.0279
ATTATAAG | 0.182
GCTTAGGA | -0.207
CCATTACA | 0.225
CGGAGCCA | -0.233
GAGGGCAC | -0.235
ACCCTTTA | 0.114
ACGGCAAA | 0.28
AGCCCCCC | -0.417
CAATATCG | 0.0808
GAGACTAC | -0.232
CCGAAAAC | 0.00987
AAGACTGA | 0.033
CCAATTAC | 0.181
AATGGTAG | 0.166
GTCGCTGA | -0.00634

Sequence | PBM E-score
GACCACAA | -0.23
CATCAAGG | -0.0962
GTACTAAC | -0.00045
ACATACAG | 0.0565
CTCCGTGA | -0.0604
ACCTACAG | -0.0445
CTTGGTGA | 0.148
AATTAAGC | 0.225
CCTGAGTA | -0.00474
CTGGCCGC | -0.124
CTCAGTAA | -0.0742
GAATAAGA | 0.0803
AGCGATGG | -0.0842
AAATGCTG | 0.102
CACAGGCC | -0.0838
GGGCACAC | -0.156
CATTTCGA | 0.0934
CTGGAATC | -0.115
TCATTGAA | 0.1
